These results are taken from the BET-seq Pho4 binding data (Le et al. 2018).

Some of the results follow. Values were computed here from the reads of four pooled replicates and scatter widely.

The assay addresses T1, Pho4 (S. cerevisiae) (UniProt P07270).
T1 sequence: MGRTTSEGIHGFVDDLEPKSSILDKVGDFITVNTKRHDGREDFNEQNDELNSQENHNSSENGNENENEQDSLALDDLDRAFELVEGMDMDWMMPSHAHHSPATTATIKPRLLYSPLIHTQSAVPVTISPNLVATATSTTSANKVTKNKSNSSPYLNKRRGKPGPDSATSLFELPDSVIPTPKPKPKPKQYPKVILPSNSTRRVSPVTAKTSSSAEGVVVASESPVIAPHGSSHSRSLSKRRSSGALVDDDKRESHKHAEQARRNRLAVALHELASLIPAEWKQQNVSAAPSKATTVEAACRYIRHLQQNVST
Kind of assay: relative binding free energy (BET-seq); higher = weaker binding. The following applies: reference: library average.
For the sequence ATGTTCACGTGCCGTT, the “relative binding free energy” value was found to be 0.2 kcal/mol.

As to TGCCGCACGTGCGGGT, the “relative binding free energy” value is -0.27 kcal/mol.

GATATCACGTGGTGAA: the “relative binding free energy” value stood at 0.27 kcal/mol.

As for TCGTACACGTGGTTAG, the “relative binding free energy” value was 0.18 kcal/mol.

As to TGGGTCACGTGGGGTC, the “relative binding free energy” value is 0.09 kcal/mol.

On to GCATGCACGTGGGGTC, for which the “relative binding free energy” value is -0.19 kcal/mol.

As to GTGATCACGTGGAGTA, the “relative binding free energy” value turned out to be 0.06 kcal/mol.

In the case of TTTGGCACGTGAAATT, the “relative binding free energy” value was found to be 0.34 kcal/mol.

With TGATGCACGTGGCGAG, the “relative binding free energy” value was -0.01 kcal/mol.

Regarding AGGGTCACGTGGTTCT, the “relative binding free energy” value worked out at 0.14 kcal/mol.

For TGTACCACGTGGGCTG, the “relative binding free energy” value was -0.24 kcal/mol.

As to GTCTGCACGTGTTAGG, the “relative binding free energy” value came out at 0.1 kcal/mol.

As for AAAGACACGTGGTTAT, the “relative binding free energy” value came to 0.07 kcal/mol.

For TTCGTCACGTGACTGT, the “relative binding free energy” value was found to be 0.19 kcal/mol.

As to GTGGTCACGTGAGGCG, the “relative binding free energy” value was found to be 0.35 kcal/mol.

As to AGGATCACGTGGGCTG, the “relative binding free energy” value was 0.04 kcal/mol.

On to TTATTCACGTGGCGGC, for which the “relative binding free energy” value amounted to 0.26 kcal/mol.

Consider TACGGCACGTGGAGTA, for which the “relative binding free energy” value is -0.09 kcal/mol.

Regarding GGTTTCACGTGGACCG, the “relative binding free energy” value is 0.28 kcal/mol.

Turning to TGAAGCACGTGAGGCG, the “relative binding free energy” value was 0.18 kcal/mol.

For the sequence GTGGCCACGTGACGTG, the “relative binding free energy” value is -0.03 kcal/mol.

On to GTGTGCACGTGATGAG, for which the “relative binding free energy” value was determined as 0.15 kcal/mol.

As to TAGAACACGTGTATGG, the “relative binding free energy” value was -0.07 kcal/mol.

Regarding ATAGGCACGTGAGTGG, the “relative binding free energy” value is 0.13 kcal/mol.

As to TCGATCACGTGAATGT, the “relative binding free energy” value amounted to 0.52 kcal/mol.

With GGCAACACGTGTTTTT, the “relative binding free energy” value worked out at 0.12 kcal/mol.

As for TGGGACACGTGTGTGG, the “relative binding free energy” value came to 0.04 kcal/mol.

For AGCGGCACGTGTACGT, the “relative binding free energy” value is 0.01 kcal/mol.

As to GACGTCACGTGAGGTG, the “relative binding free energy” value was 0.11 kcal/mol.

Turning to GCTATCACGTGAGTGG, the “relative binding free energy” value amounted to 0.49 kcal/mol.

As to CGTTACACGTGGTTAG, the “relative binding free energy” value came out at 0.01 kcal/mol.

Take GTGGGCACGTGTACTG: the “relative binding free energy” value is -0.19 kcal/mol.

As to TGTGCCACGTGGTGGG, the “relative binding free energy” value was -0.23 kcal/mol.

As for CGCGGCACGTGGGTGT, the “relative binding free energy” value is -0.16 kcal/mol.

For the sequence AAGTTCACGTGTTTGA, the “relative binding free energy” value was determined as 0.14 kcal/mol.

For GGAGGCACGTGGTACT, the “relative binding free energy” value is -0.16 kcal/mol.

Regarding GGTTACACGTGCTGGA, the “relative binding free energy” value was 0.22 kcal/mol.

Take CAATGCACGTGAGGTT: the “relative binding free energy” value was 0.26 kcal/mol.

Turning to TGATCCACGTGGCGTT, the “relative binding free energy” value is 0.03 kcal/mol.

In the case of TGTTACACGTGTAAAT, the “relative binding free energy” value stood at 0.33 kcal/mol.

As to GAGTACACGTGTTTGG, the “relative binding free energy” value was determined as 0.12 kcal/mol.

As to GCGGGCACGTGACTGG, the “relative binding free energy” value is 0.12 kcal/mol.

Turning to GTTTTCACGTGGGGGT, the “relative binding free energy” value came out at 0.27 kcal/mol.

GTAAACACGTGTGTGT: the “relative binding free energy” value was -0.01 kcal/mol.

Turning to ATTCGCACGTGCGTGG, the “relative binding free energy” value is -0.26 kcal/mol.

Take AGAGGCACGTGGAGCG: the “relative binding free energy” value was -0.06 kcal/mol.

Regarding GTAGTCACGTGAATAG, the “relative binding free energy” value was found to be 0.26 kcal/mol.

In the case of TGATACACGTGTATAA, the “relative binding free energy” value worked out at 0.12 kcal/mol.

In the case of ACGGTCACGTGTAGGT, the “relative binding free energy” value was 0.17 kcal/mol.

For the sequence GAAAACACGTGATTGG, the “relative binding free energy” value turned out to be 0.28 kcal/mol.

As to GCTAGCACGTGGGAGG, the “relative binding free energy” value is -0.11 kcal/mol.

For the sequence TGCTCCACGTGGGGTA, the “relative binding free energy” value was -0.19 kcal/mol.

For the sequence TCTCGCACGTGGGTTA, the “relative binding free energy” value is -0.22 kcal/mol.

On to TTCGGCACGTGAGGAT, for which the “relative binding free energy” value was found to be 0.2 kcal/mol.

Regarding GCTTACACGTGTGGGA, the “relative binding free energy” value was determined as 0.27 kcal/mol.

Consider TAGAGCACGTGTGAAG, for which the “relative binding free energy” value was 0.04 kcal/mol.

As to TGCGGCACGTGAGAGA, the “relative binding free energy” value came out at 0.18 kcal/mol.

For TGTCTCACGTGTAGCG, the “relative binding free energy” value is 0.28 kcal/mol.

For GTGGGCACGTGATTAG, the “relative binding free energy” value was 0.02 kcal/mol.

As to TGCTACACGTGGGGGT, the “relative binding free energy” value is -0.1 kcal/mol.

Consider ATGTCCACGTGAGGGC, for which the “relative binding free energy” value came out at 0.21 kcal/mol.

On to ATGGTCACGTGGGCAG, for which the “relative binding free energy” value is -0.12 kcal/mol.

Consider GTATGCACGTGGAGTT, for which the “relative binding free energy” value came out at 0.05 kcal/mol.

As for TCATACACGTGTAGGT, the “relative binding free energy” value was 0.02 kcal/mol.

As to AGGAGCACGTGATAAG, the “relative binding free energy” value is 0.05 kcal/mol.

For GGAGTCACGTGTGGTT, the “relative binding free energy” value was 0.19 kcal/mol.

In the case of CTGTTCACGTGTTGGG, the “relative binding free energy” value was 0.26 kcal/mol.

Consider ATATTCACGTGATTGT, for which the “relative binding free energy” value is 0.32 kcal/mol.

In the case of TAGTGCACGTGCGCGG, the “relative binding free energy” value is -0.13 kcal/mol.

On to ATGGGCACGTGGGCGC, for which the “relative binding free energy” value was -0.37 kcal/mol.

As to AGAGACACGTGGTATA, the “relative binding free energy” value was -0.03 kcal/mol.

Consider TGGTACACGTGATAGT, for which the “relative binding free energy” value is 0.17 kcal/mol.

In the case of TTCCGCACGTGAAGGG, the “relative binding free energy” value turned out to be 0.27 kcal/mol.

As to TTTATCACGTGCAGAG, the “relative binding free energy” value amounted to 0.17 kcal/mol.

For the sequence GGTTCCACGTGGATTT, the “relative binding free energy” value came to 0.15 kcal/mol.

CGTGACACGTGGGCTT: the “relative binding free energy” value is -0.16 kcal/mol.

For GTAGTCACGTGTGATT, the “relative binding free energy” value is 0.28 kcal/mol.

For TGGCCCACGTGGAGGG, the “relative binding free energy” value is -0.15 kcal/mol.

As for GTGAGCACGTGAGGCG, the “relative binding free energy” value was found to be 0.14 kcal/mol.

Take ATTATCACGTGTGGCG: the “relative binding free energy” value is 0.32 kcal/mol.

Take CTAGACACGTGTTGTG: the “relative binding free energy” value was -0.04 kcal/mol.

Take TAGATCACGTGGAGGA: the “relative binding free energy” value was 0.07 kcal/mol.

For CAGTCCACGTGGGTGG, the “relative binding free energy” value was -0.24 kcal/mol.

Take CATTACACGTGGGTTT: the “relative binding free energy” value was -0.04 kcal/mol.

Take TAGTTCACGTGTGGAG: the “relative binding free energy” value came out at 0.3 kcal/mol.

Regarding TTCTTCACGTGCGTTT, the “relative binding free energy” value stood at 0.25 kcal/mol.

Regarding ATTAACACGTGGTATA, the “relative binding free energy” value is -0.13 kcal/mol.

Consider TGGAGCACGTGGCTAG, for which the “relative binding free energy” value is -0.16 kcal/mol.

Turning to GGGCGCACGTGGGCGG, the “relative binding free energy” value was -0.27 kcal/mol.

For the sequence TGAGTCACGTGCCGTG, the “relative binding free energy” value is -0.06 kcal/mol.

Consider CGTTACACGTGTGTTT, for which the “relative binding free energy” value was determined as 0.1 kcal/mol.

As for CGTCACACGTGGAGGT, the “relative binding free energy” value is -0.01 kcal/mol.

As for CTCATCACGTGTTTGT, the “relative binding free energy” value worked out at 0.1 kcal/mol.

Take TGTCACACGTGATGGA: the “relative binding free energy” value was 0.24 kcal/mol.

As for GGCATCACGTGTAGTG, the “relative binding free energy” value came out at 0.15 kcal/mol.

On to TGCGGCACGTGAGTGA, for which the “relative binding free energy” value turned out to be 0.16 kcal/mol.

Regarding TTGCGCACGTGGGGTC, the “relative binding free energy” value was -0.26 kcal/mol.

On to CGTTTCACGTGGTGGG, for which the “relative binding free energy” value was determined as 0.15 kcal/mol.

For TTATACACGTGCTGTA, the “relative binding free energy” value was -0.06 kcal/mol.

For the sequence TCTGTCACGTGGATAA, the “relative binding free energy” value amounted to 0.14 kcal/mol.

Take ATGGACACGTGTGTAT: the “relative binding free energy” value was found to be 0.03 kcal/mol.

As for GCAATCACGTGCGGGG, the “relative binding free energy” value was determined as 0.18 kcal/mol.

As to AATGGCACGTGTAAGA, the “relative binding free energy” value is 0.03 kcal/mol.

Regarding ATACGCACGTGGGGAT, the “relative binding free energy” value was -0.31 kcal/mol.

With GTGCGCACGTGATGGT, the “relative binding free energy” value was 0.11 kcal/mol.

As to ATAGGCACGTGCTGGA, the “relative binding free energy” value was -0.14 kcal/mol.

As for CGGTACACGTGGGGAT, the “relative binding free energy” value was -0.09 kcal/mol.

Take TTAGACACGTGTAGGA: the “relative binding free energy” value was 0.01 kcal/mol.

Turning to TTTAACACGTGTTGGC, the “relative binding free energy” value worked out at 0.1 kcal/mol.

As to GATAACACGTGGGAGG, the “relative binding free energy” value is -0.08 kcal/mol.

Take TTAGACACGTGGGAAT: the “relative binding free energy” value was determined as 0.15 kcal/mol.

In the case of ATGGTCACGTGCGTTT, the “relative binding free energy” value came to 0.07 kcal/mol.

In the case of GGGTGCACGTGGGAGG, the “relative binding free energy” value was -0.07 kcal/mol.

Take GCTGGCACGTGAGGCG: the “relative binding free energy” value is 0.21 kcal/mol.

With TCTTACACGTGTGGAG, the “relative binding free energy” value stood at 0.29 kcal/mol.
